Reference: the GPR68 mutational scans of Howard et al. (2025)

B1: GPR68, Q15743 (parent)
chain: MGNITADNSSMSCTIDHTIHQTLAPVVYVTVLVVGFPANCLSLYFGYLQIKARNELGVYLCNLTVADLFYICSLPFWLQYVLQHDNWSHGDLSCQVCGILLYENIYISVGFLCCISVDRYLAVAHPFRFHQFRTLKAAVGVSVVIWAKELLTSIYFLMHEEVIEDENQHRVCFEHYPIQAWQRAINYYRFLVGFLFPICLLLASYQGILRAVRRSHGTQKSRKDQIQRLVLSTVVIFLACFLPYHVLLLVRSVWEASCDFAKGVFNAYHFSLLLTSFNCVADPVLYCFVSETTHRDLARLRGACLAFLTCSRTGRAREAYPLGAPEASGKSGAQGEEPELLTKLHPAFQTPNSPGSGGFPTGRLA

Key:
[1] = variants of: B1; test: cAMP reporter score (Enrich2 score, wild type = 0); higher = more signal; HEK293T, FACS bins
[2] = variants of: B1; test: surface expression score (Enrich2 score, wild type = 0); higher = more signal; HEK293T, FACS bins

Variant	cAMP reporter score ([1]; pH 5.5)	cAMP reporter score ([1]; pH 6)	cAMP reporter score ([1]; pH 6, modulator: ogerin)	cAMP reporter score ([1]; pH 6.5, modulator: ogerin)	surface expression score [2]
T30_V31insG	-1.89	-0.377	-0.835	-1.48	-1.66
D16Y	-0.882	-0.849	-1.02	-1.17	0.076
D16W	-1.39	-0.817	-1.23	-0.679	-1.27
Q21_T22insGSG	-1.07	-1.23	-2.25	-1.08	-2.08
H20del	-1.21	-0.456	-1.27	-0.819	0.831
T22_L23insGSG	-1.17	-0.252	-1.54	-0.814	-2.73
V26_Y28del	-1.49	-0.454	-1.33	-0.798	-2.14
L23del	-1.73	-1.26	-1.5	-1.76	-3.09
H17_T18insGS	0.255	0.414	0.522	1.03	0.441
A24_P25insGS	-1.27	-1.63	-1.63	-1.22	-2.94
V27_V29del	-1.46	-1.35	-1.41	-1.8	-3.06
L23_A24insGS	-2.15	-1.66	-2.12	-1	-2.63
V29M	0.803	-0.234	1.07	0.174	1.33
V29C	-1.1	-0.826	-0.915	-1.15	-1.57
V29S	-0.594	-0.976	-1.39	-0.845	-2.07
V29N	-0.523	0.268	-1.75	-0.898	-2.23
V29L	1.24	0.769	1.3	1.24	1.82
V29I	0.061	–	0.255	0.956	0.084
V29R	-1.03	-0.947	-1.46	-0.694	-2.14
V29H	-1.14	-0.427	-1.01	-1.06	-2.41
V29D	-1.8	-0.209	-1.97	-1.68	-1.51
V29Y	-0.81	-1.09	-0.781	-0.569	-0.732
V29T	-0.691	–	-1.51	-0.716	-1.9
V29F	0.212	-0.604	-0.262	-0.416	-0.092
V29G	-0.823	-1.65	-0.677	-0.926	-1.24
V29P	-1.82	-0.995	-1.68	-0.902	-2.67
V29K	-0.969	-0.369	-1.54	-1.19	-2.41
V29Q	-1.31	-1.51	–	-1.04	-3.33
V29W	0.42	-0.749	-0.117	-0.275	2.04
V29A	-0.481	-0.726	-1.22	-1.11	-1.07

The least precise scores are not listed. The source holds two more conditions with little spread; they are left out. Names with del lack the residues named; names with ins carry added residues between the positions named. For part of these data: How much ogerin was present is not stated here.
